Whole data set: some 81,000 sequences, median “one-hybrid fitness for binding parS DNA” near -0.17, cut for the highest 2% near 0.51. The list shows a part of the results.
B1: Caulobacter ParB omega fusion; a variant is named by its letters at X, in order, B8GW30 (parent)
chain: MESVVVGEPGMSEGRRGLGRGLSALLGEVDAAPAQAPGEQLGGSREAPIEILQRNPDQPRRTFREEDLEDLSNSIREKGVLQPILVRPSPDTAGEYQIVAGERAWRAAQRAGLKTVPIMVRELDDLAVLEIGIIENVQRADLNVLEEALSYKVLMEKFERTQENIAQTIGKSXSHVANXMRLLXLPDEVQSYLVSGELTAXHARAIAAAADPVALAKQIIEGGLSVRETEALARKAPNLSAGKSKGGRPPRVKDTDTQALESDLSSVLGLDVSIDHRGSTGTLTITYATLEQLDDLCNRLTRGI

Variants of: B1
Test: one-hybrid fitness for binding parS DNA (scaled: cognate 1, non-cognate 0); higher = stronger binding
Settings: with parS DNA site
Procedure, shortened: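 Fitness here means the log change in variant-to-wild-type read ratio between plasmids sequenced before and after selection. That scale was set so cognate equals 1 and non-cognate equals 0. The selection was a bacterial one-hybrid screen of Caulobacter ParB libraries, four specificity codons randomised, in E. coli USO carrying a HIS3 reporter with the site 19 bp from the promoter, grown 48 hours at 37°C on M9-minus-histidine with 0.1 mM IPTG and 5 mM 3-AT.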

one-hybrid fitness for binding parS DNA, 0.799:
RKET

one-hybrid fitness for binding parS DNA, 0.419:
RFGY

one-hybrid fitness for binding parS DNA, 0.271:
RRAM

one-hybrid fitness for binding parS DNA, 0.247:
RQRF

one-hybrid fitness for binding parS DNA, 0.802:
RSEG

one-hybrid fitness for binding parS DNA, 0.228:
RWKH

one-hybrid fitness for binding parS DNA, 0.28:
RRYY

one-hybrid fitness for binding parS DNA, 0.851:
RLKS

one-hybrid fitness for binding parS DNA, 0.876:
RYYT

one-hybrid fitness for binding parS DNA, 0.218:
RTVW

one-hybrid fitness for binding parS DNA, 0.685:
RFIG

one-hybrid fitness for binding parS DNA, ≤ 0.2:
DHSA
IRKD
PRSQ
SRQT
YDLF
IVRA
ITNR
KWFS
MTGD
AAQM
AHCR
RYCQ
QNNT
NPHA
EDVW
NTHQ
AARH
AKNC
MHSR
AMKF
IQSH
AKED
DNRH
QMWV
TCLP
EMQG
LAYQ
MTCS
AGRF
SPVK
RSTP
YCIR
NAES
QDRT
AMAY
AKAE
QTVM
PHFH
KPVF
GITY
VHPY
QCSG
IMLI
HWAI
AKAC
TPQG
IPDS
WTRA
APAG
YTQY
SYKC
IMAY
NFSY
TGPE
AKRC
TIGR
TLRA
FYMS
QGPW
RTFK
ISQG
HQTA
WSAC
FHTM
TSFR
STTT
PLPW
TESG
MFKY
GAVG
WHMS
PTIM
VWPG
NFYC
YSVS
PAKF
HRKT
QIGG
EHDE
KMVV
CLRI
CLYA
ATEL
PCAI
PPVP
LGSS
TLHC
RELV
QVIW
ILVA
ALEC
RVMP
MVMT
YAGT
SIKT
PNNT
QTRA
SNQL
GPKK
ALKD
WSES
IVGG
SDHE
DGVG
EVTS
CYAL
ISFY
LCMM
TPMQ
VRQC
REYG
CNVL
SHCD
MHKR
KQPS
IGRL
RFQR
SQTA
QMII
GFRP
FNPS
HYVT
LTIG
KNHC
HTLP
EFSM
GVPT
FTQM
YTPA
LMWW
LRYW
PCEF
DVRS
LKRC
VTAK
FQNT
LRDI
NSMR
DLME
QDKK
FRRS
EPNR
SRQN
QHEK
DVCG
MTST
WNTE
WRTA
PCFR
QAQD
GEGP
KVFF
NREL
LIHR
LKYG
IHQD
HMLG
GRKN
DIIC
QPGC
PVSF
KRKI
WSCG
CFIV
VYTG
PVLV
SSAA
HSPF
AEHI
ERTC
YPMR
MMAR
NVDA
GQAL
TICR
DGWC
PILC
RAGE
QVRL
ATML
DHRM
TEWR
NPHG
LEAS
TQHH
MVPK
HRHY
SNMC
HTMF
YGCT
EPRI
GYKT
PILL
RDKV
NASH
GPSV
SKME
NAAD
FSKS
TRRA
SIKY
VNCG
KRCS
PPHW
VHNM
WPRA
LYNL
QVWS
ERNL
LREC
SLHQ
SSPF
RLDV
ILFR
EVRE
NRHS
NTRD
PIDK
KKWS
GAAC
EQGG
MEKM
VDGK
QKNH
SALT
NCFW
CVDS
QDIV
HRNH
NIGI
KMIR
RSEQ
GYKF
AAAC
DNFS
RLSD
PRRD
TVCM
KNMC
HHIA
RFMV
FPIG
EKVR
QAAS
SFHG
IGNF
VEHD
VTKC
PKTG
CMCY
WEGR
VLDL
SKKA
AFGT
YCLL
LRPN
MNVS
PMII
TFQR
PAVN
SKHC
HDLW
TSSM
LART
VWTD
NLIL
CMRV
HCNC
HGAT
QKLT
SEPW
AKTD
CWKV
ACRD
SIRY
GLKR
WSGS
HTRE
ANHF
RSVE
VVNS
WRKT
QAHM
TWIC
YSKK
KIRV
KTTM
SCQG
ARPM
MTNS
SWVG
LQDT

one-hybrid fitness for binding parS DNA, 0.537:
RGLC

one-hybrid fitness for binding parS DNA, 0.321:
KQCW

one-hybrid fitness for binding parS DNA, 0.223:
RCHQ

— a collection of fitness landscapes (doi:10.1016/j.celrep.2020.107928)
